Source: PubChem BioAssay (NCATS)
Several values for one entry are separate records, joined by “and”; a condition that tells them apart may be missing. Identical values can stand only once. Inconclusive results, whose numbers are uncertain, are shown with a selection of clear calls. Where the call is inconclusive, the potency comes from a doubtful curve fit. Activity calls are given as the source filed them. The call rests on the fitted dose curve; in most records, active means well fitted cell-killing curve with a large enough effect; inconclusive means small, poorly fitted or top-dose-only effect; inactive means flat fitted curve, though single readings scatter.

test: Cellular viability qHTS for adrenocortical cancer (ACC) cell line NCI-H295R (AID 1963990); conditions: CellTiter-Glo ATP luminescence, 48 h; activity change, negative = viability loss: at 46.1 µM (top of the series); further: nearly all actives have a fitted effect of over 60% in size
Excerpt: PI: Naris Nilubol, MD Surgical Oncology Program, National Cancer Institute (NCI) National Institute of Health (NIH), Bethesda, Maryland Adrenocortical cancer (ACC) is a rare malignancy with poor survival outcomes and few treatment options. Currently, mitotane is the only FDA-approved therapy for ACC. Although adjuvant radiation therapy is rarely utilized, it has the potential to improve survival in select cases. Through a quantitative high-throughput drug screen (qHTS), we identified auranofin (AF), a thioredoxin reductase (TXNRD) inhibitor, as a promising candidate drug. This study aims to evaluate whether AF can enhance the efficacy of radiation therapy in the treatment of ACC. Two human ACC cell lines, SW-13 and NCI-H295R, were screened using the National Center for Advancing Translational Sciences (NCATS) Pharmaceutical Collection (NPC) and the Mechanism Interrogation PlatE (MIPE) library (~4,991 compounds). CellTiter-Glo (Cat # G7570, Promega, Madison, WI) was utilized to measure cell viability. Described herein are the results of the corresponding viability assay.
PROTOCOL TABLE (as described by Inglese J, Shamu CE and Guy RK. 2007) SEQUENCE No. (e.g., 1, 2, 3, etc.); […] (e.g., Cells, Incubation, Reagent, etc.); VALUE; DESCRIPTION. 1; Cells; 5 uL; white, solid-bottom, 1536-well tissue-culture treated plates. 2; Time; overnight culture at 37C with 5% CO2. 3; Compounds and control; 23 nL; Kalypsis pin tool (Wako USA) equipped with a 1536-well pin head to transfer to the assay plates. 4; Time; 48 hours; 37C with 5% CO2. 5; Reagent; 4 uL; CellTiter-Glo luminescent substrate mix. 6; Time; 20 min at room temperature. 7; Detection; Luminescence; ViewLux plate reader NOTES (numbers refer to Sequence numbers above) 1. NCI-H295R cells were harvested from a T175 flask and resuspended in ITS-supplemented DMEM serum-free medium at a concentration of 300 000 cells/mL. Then 5 uL of resuspended cells were dispensed into each well of white, solid-bottom, 1536-well tissue-culture-treated plates using a multidrop combi dispenser. The plates were covered with stainless steel gasket lids. 2-3. The plates were cultured overnight at 37C with 5% CO2. Twenty-three nL of compounds (eight selected concentrations from the NPC / MIPE) or positive control (10 mM stock of bortezomib) in DMSO was transferred to each well of the assay plate using a pin tool (Kalypsys, San Diego, CA, USA). The final concentration of the compounds in the 5 uL assay volume ranged from 0.5 nM to 46 uM. 4-6. After 48 hours of incubation at 37C and 5% CO2, 4 uL of CellTilter-Glo luminescent substrate mix (Promega, Madison, WI, USA) was added to each well. Then the plates were incubated for 20 minutes at room temperature. 7. After incubation, luminescence was measured using a ViewLux plate reader (PerkinElmer, Waltham, MA, USA) with a clear filter was used to measure the number of metabolically competent cells. To determine compound activity in the qHTS assay, the titration-response data for each sample was plotted and modeled by a four-parameter logistic fit yielding IC50 and efficacy (maximal response) values. Raw plate reads for each titration point were normalized relative to positive control ([…], 100% inhibition) and DMSO-only wells (basal, 0%). REFERENCES: Inglese J, Shamu CE and Guy RK, Reporting data from high throughput screening of small molecule libraries, Nature Chemical Biology, 2007, 3(8): 438-441. doi.org/10.1038/nchembio0807-438.
Tags describe the fitted curve by direction and shape.

SMILES | Potency | activity change, negative = viability loss
O=C(N[C@H]1N=C(c2ccccc2F)c2cccc3c2N(CC3)C1=O)c1cc2ccccc2[nH]1 | inconclusive: 14.6 µM [cytotoxic, partial curve, poor fit] | –
CCCN1CCC[C@@H]2Cc3[nH]ncc3C[C@H]21 | – | inactive: -1.59%
CC[n+]1c(-c2ccccc2)c2cc(N)ccc2c2ccc(N)cc21 | active: 14.6 µM | –
Cc1cccc(Cc2cnc[nH]2)c1C | – | inactive: -19.4%
CNC(=O)NC(O)C(Cl)(Cl)Cl (stereo not given) | inconclusive: 20.6 µM [cytotoxic, single point] | –
O=C(O)CNC(=O)c1c(O)c2ccccc2n(Cc2ccccc2)c1=O | inconclusive: 22.4 µM [cytotoxic, partial curve, poor fit] | –
CCC1(c2ccc(N)cc2)CCC(=O)NC1=O (stereo not given) | inconclusive: 0.651 µM [rising, single point] | –
CC(=O)[O][Hg][c]1ccccc1 | active: 1.46 µM | –
CCO/N=C(\CC)C1=C(O)CC(c2c(C)cc(C)cc2C)CC1=O (stereo not given) | inconclusive: 63.1 µM [cytotoxic, single point] | –
O=P1(N(CCCl)CCCl)NCCCO1 (stereo not given) | inactive | –
Oc1ccc([C@H]2CNCc3c2ccc(O)c3O)cc1O | inconclusive: 29.1 µM [cytotoxic, single point] | –
CC(C)=CC1C(C(=O)OCN2C(=O)C3=C(CCCC3)C2=O)C1(C)C (stereo not given) | – | inactive: -22.9%
CCCC1CCCCN1 (stereo not given) | – | inactive: 3.08%
CC(CC(C#N)(c1ccccc1)c1ccccc1)N(C)C (stereo not given) | inconclusive: 14.1 µM [cytotoxic, partial curve] | –
CC[C@H]1C[C@@H]2C[C@H]3c4[nH]c5ccc(OC)cc5c4CCN(C2)[C@@H]13 | inconclusive: 63.1 µM [cytotoxic, single point] | –
COC1=C[C@@H]2[C@@H]3Cc4ccc(OC)c(O)c4[C@]2(CCN3C)CC1=O | – | inactive: -2.42%
CC(=O)OC1(c2ccccc2)CCN(CCc2ccccc2)CC1 | inconclusive: 0.0089 µM [cytotoxic, full curve] | –
Cc1nnc2n1-c1sc(CCC(=O)N3CCOCC3)cc1C(c1ccccc1Cl)=NC2 | inconclusive: 14.6 µM [cytotoxic, partial curve, poor fit] | –
C[C@H]1CNCCc2ccc(Cl)cc21 | inconclusive: 8.2 µM [cytotoxic, partial curve, poor fit] | –
CN1C[C@H](CNC(=O)OCc2ccccc2)C[C@@H]2c3cccc4c3c(cn4C)C[C@H]21 | inconclusive: 29.1 µM [cytotoxic, single point] | –

SMILES | Potency | activity change, negative = viability loss
N[C@@H]1C[C@H]1c1ccccc1 | inconclusive: 29.1 µM [cytotoxic, single point] | –
Cc1ccc2c(c1)C1CN(C)CCC1N2 (stereo not given) | – | inactive: -27.1% [at 20 µM]
C/C(O)=C(\C#N)C(=O)Nc1cc(Br)ccc1Br | inconclusive: 17.8 µM [cytotoxic, partial curve, poor fit] | –
CCC(OC(C)=O)C(CC(C)NC)(c1ccccc1)c1ccccc1 (stereo not given) | active: 15.8 µM | –
C[C@@H]1CN(Cc2ccc(F)cc2)CCN1C(=O)COc1ccc(Cl)cc1NC(N)=O | active: 20 µM | –
O=C1C(I)=CC(=C(c2cc(I)c(O)c(I)c2)c2ccccc2C(=O)O)C=C1I | active: 20.6 µM | –
C=C1C[C@@H]2[C@H](CC[C@]3(C)C(=O)CC[C@@H]23)[C@@]2(C)C=CC(=O)C=C12 | inconclusive: 20.6 µM [cytotoxic, partial curve] and inconclusive: 25.1 µM [cytotoxic, partial curve] | –
COc1ccc(C(c2ccc(OC)cc2)C(Cl)(Cl)Cl)cc1 | active: 28.2 µM | –
O=C(Nc1ccc(Br)cc1)c1cc(Br)cc(Br)c1O | active: 10.3 µM | –
CN1CCC(O)(c2ccc(F)cc2)C(C(=O)c2ccc(F)cc2)C1 (stereo not given) | – | inactive: 0.871%
CC(=O)N1N=C(c2ccc(N)cc2)c2cc3c(cc2C[C@H]1C)OCO3 | – | inactive: -9.52%
Nc1ccc(Cl)cc1C(=O)c1ccccc1F | inconclusive: 10.3 µM [cytotoxic, partial curve] | –
COc1cc(CC(C)N)c(OC)cc1Br (stereo not given) | inconclusive: 63.1 µM [cytotoxic, single point] | –
Oc1ccc(Cl)cc1Cc1ccccc1 | active: 12.6 µM and active: 23.1 µM | –
Clc1ccc(COC(Cn2ccnc2)c2ccc(Cl)cc2Cl)cc1 (stereo not given) | inconclusive: 29.1 µM [cytotoxic, single point] and active: 22.4 µM | –
CN1CCN(c2ccc([N+](=O)[O-])c3no[n+]([O-])c23)CC1 | inconclusive: 35.5 µM [cytotoxic, single point] | –
NC(=O)CN1CCCC1=O | inconclusive: 7.31 µM [cytotoxic, partial curve, poor fit] | –
C[C@]12CCC(=O)C=C1CC[C@@H]1[C@@H]2CC[C@@]2(C)[C@H]1CC[C@]2(C)O | inconclusive: 25.9 µM [cytotoxic, partial curve] | –
CCOCCOC(C)=O | inconclusive: 12.6 µM [cytotoxic, single point] | –
CC1=C(O)C(=O)C=C2C1=CC=C1[C@@]2(C)CC[C@@]2(C)[C@@H]3C[C@](C)(C(=O)O)CC[C@]3(C)CC[C@]12C | active: 6.31 µM | –
